# Data published in PMC6919601, “Identification of Plasmodium dipeptidyl aminopeptidase allosteric inhibitors by high throughput screening” (PLoS ONE, 2019).
# Where “and” joins values, the source holds several entries; their conditions need not be identical. Equal entries are not always repeated. The campaign covered roughly 110,000 compounds. About 230 (0.21%) showed an effect of 50% or more. This is one part of the list.
# Target: DPAP1 (Plasmodium falciparum, UniProt Q8IIJ9)
# Test: primary screen, percent inhibition; read by cleavage of a fluorogenic dipeptide substrate; higher = more effect of the substance
# Parameters: species or system P. falciparum D10 trophozoite lysates; single well
# 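Note: 30 min substrate incubation versus DMSO and 10 µM JCP410 controls.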
# Sequence of DPAP1 (Q8IIJ9 whole entry, looked up): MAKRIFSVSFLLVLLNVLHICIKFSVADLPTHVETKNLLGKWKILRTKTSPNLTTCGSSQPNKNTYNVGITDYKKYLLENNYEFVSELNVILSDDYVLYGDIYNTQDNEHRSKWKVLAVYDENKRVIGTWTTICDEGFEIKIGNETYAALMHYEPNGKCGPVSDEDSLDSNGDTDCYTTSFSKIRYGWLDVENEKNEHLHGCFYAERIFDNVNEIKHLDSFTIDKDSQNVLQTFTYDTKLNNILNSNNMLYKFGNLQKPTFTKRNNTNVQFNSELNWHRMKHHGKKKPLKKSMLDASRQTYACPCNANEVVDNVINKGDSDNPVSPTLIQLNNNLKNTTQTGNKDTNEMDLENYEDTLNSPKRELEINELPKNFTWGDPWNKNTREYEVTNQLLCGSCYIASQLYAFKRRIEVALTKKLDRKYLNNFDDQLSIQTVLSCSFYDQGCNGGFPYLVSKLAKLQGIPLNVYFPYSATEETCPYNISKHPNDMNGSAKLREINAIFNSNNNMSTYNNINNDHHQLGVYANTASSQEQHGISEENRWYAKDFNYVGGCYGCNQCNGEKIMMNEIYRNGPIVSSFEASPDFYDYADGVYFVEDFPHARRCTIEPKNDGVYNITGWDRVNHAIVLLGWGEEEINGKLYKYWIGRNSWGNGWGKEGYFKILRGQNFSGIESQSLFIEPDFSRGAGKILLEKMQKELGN
row,Structure (SMILES),% Inhibition @ 10 uM
1,Oc1c(Cl)cc(Cl)cc1C1NCCc2c1[nH]c1ccccc21 (centres unmarked),19.2%
2,CC(C)n1cc(NC(=O)c2ccncc2)cn1,4.58%
3,CCC(O)=C1C(=O)N(C)C(=O)N(C)C1=O,2.56%
4,Cc1csc(NC(=O)c2cnn(-c3ccc(C)c(C)c3)c2C2CCN(C(=O)OC(C)(C)C)CC2)n1,0.711%
5,Cc1c(C)n2c3c(cc(NC(=O)c4ccccc4)cc13)CCC2,3.15%
6,Cc1c(C)c2cc(Cl)c3c(c2oc1=O)CN(Cc1ccccc1)CO3,-2.57%
7,COc1ccc(Br)cc1C(=O)Nc1ccc2c(c1)C(=O)N(C)C2=O,2.08%
8,COc1cccc(C(=O)Nc2cccc(C)n2)c1,-1.52%
9,COc1cccc(NC(=O)COc2ccc3oc4c(c3c2)CCCC4)c1,2.01%
10,CC(=N)Nc1sc2c(c1C#N)CCCC2,-6.99%
11,CCS(=O)(=O)C1=NSC2=NC(=O)/C(=C\c3cc(OC)c(OC)c(OC)c3)C(=N)N21,1.85%
12,CCCCCC(=O)N(CN1C(=O)c2ccccc2C1=O)c1ccccc1OC,4.28%
13,CCOc1ccccc1-n1c(C)cc(/C=C2\C(=N)N3N=C(S(C)(=O)=O)SC3=NC2=O)c1C,-1.54%
14,CC(C)C[C@H](NC(=O)N1CCN(C(=O)c2ccco2)CC1)C(=O)NCC#N,1.35%
15,Cc1ccc(C)c(N2CCN(C3CCC(c4ccccc4)CC3)CC2)c1 (centres unmarked),1.26%
16,COc1ccc(OC)c(CN2CCN(C(=O)c3ccccc3F)CC2)c1,-7.09%
17,O=C(Nc1ccc(-c2nc3cc(Cl)ccc3o2)c(O)c1)c1ccc2c(c1)OCCO2,-2.87% and 2.03%
18,Cc1cccc2sc(NC(=O)Cc3nn(C)c(=O)c4ccccc34)nc12,-0.458%
19,O=C1C2C3C=CC(C2C(=O)N1c1cccc(O)c1)C1C2C(=O)N(c4cccc(O)c4)C(=O)C2C31 (centres unmarked),-4.61%
20,N#CC1(NC(=O)[C@H](Cc2c(F)cccc2F)NC(=O)c2ccc(-c3ccccc3Cl)cc2)CCN(CC(F)(F)F)CC1,-3.48%
21,Cc1noc(C)c1S(=O)(=O)N1CCC(C)CC1,-6.29%
22,CC1CCC(c2ccc(O)cc2)(c2ccc(O)cc2)CC1,2.6%
23,O=C(O)/C=C/C(=O)Nc1ccc(N2CCOCC2)cc1,-1.25%
24,COc1ccc(C2CC(=O)c3cnc(NC(C)=O)nc3C2)cc1 (centres unmarked),-1.2%
25,CC(=O)O/N=C(/c1ccc(Cl)cc1Cl)N1CCCCC1,-4.24%

row,Structure (SMILES),% Inhibition @ 10 uM
1,O=C1N(Cc2cccc3ccccc23)c2ccccc2C1(c1ccc(O)cc1)c1ccc(O)cc1,-1.77%
2,CC(=O)c1c(C)oc2ccc(NS(=O)(=O)c3ccc(Cl)cc3)cc12,-6.29%
3,CC1CN(Cc2ccc3ccccc3c2)CC(C)O1 (centres unmarked),1.9%
4,O=C(CCNC(=O)Cn1ccc2ccccc2c1=O)NCc1ccccn1,4.14%
5,Cc1ccc2c(n1)sc1c(O)cc(O)nc12,1.76%
6,O=C(NCCC1=CCCCC1)C(Cc1ccccc1)NS(=O)(=O)c1cccc2nsnc12 (centres unmarked),5.21%
7,COc1ccccc1CN1CCN(c2ccccc2C)CC1,2.47%
8,COc1ccc(-c2nc(CS(=O)CC(=O)NCCCN3CCOCC3)c(C)o2)cc1OC (centres unmarked),-4.71%
9,Cc1c(Cl)cccc1-n1nnc(-c2nc(-c3cccs3)no2)c1N,0.0603%
10,CC1CCCN(C(=O)Cc2ccccc2)C1 (centres unmarked),1.9%
11,CCc1ccc(Oc2nc3c(C)cccn3c(=O)c2/C=C(\C#N)C(=O)NCC2CCCO2)cc1 (centres unmarked),-1.43%
12,CCN(c1ccccc1)S(=O)(=O)c1ccc(NC(=O)c2ccc(Br)o2)cc1,-3.34%
13,COc1ccc(CN2CCN(c3ccccc3F)CC2)cc1C,-6.36%
14,CCn1cc(NC(=O)NC2CCc3ccccc32)c(=O)c2ccc(C)nc21 (centres unmarked),6.92%
15,Cc1cccc2sc(NC(=O)Cc3ccccc3F)nc12,4.1%
16,O=C(c1ccco1)c1cn(CC(=O)N2CCOCC2)c2ccccc12,-5%
17,CC(=O)c1ccc(NC(=O)Cn2ccnc2)cc1,-6.71%
18,COCCNCc1c(C(=O)O)c(C)n(Cc2c(F)cccc2Cl)c1C,10.2%
19,CCOC(=O)c1c(C)[nH]c(C)c1S(=O)(=O)N(C)CC(=O)NC1CCCc2ccccc21 (centres unmarked),-1.59%
20,COC(=O)c1sc(NC(=O)C2C3CCC(O3)C2C(=O)O)nc1C (centres unmarked),10.8%
21,Cn1c(=O)c2c(-c3ccccc3Cl)n(CCc3ccccc3)cc2n(C)c1=O,0.366%
22,CC(Oc1ccccc1F)C(=O)Nc1cccc(C(F)(F)F)c1 (centres unmarked),3.74%
23,O=C(O)CCCCCNC(=O)Cc1ccccc1,-5.5%
24,CCCC/N=c1/c(N2CCN(C(=O)OCC)CC2)c(O)c1=O,-3.21%
25,COc1ccccc1NC(=O)Cc1c(OC)ccc2cc(Br)ccc12,-5.48%
